The values below come from PubChem BioAssay AID1508642 (National Center for Advancing Translational Sciences (NCATS), 2021).

The campaign covered roughly 43,000 compounds. About 200 (0.47%) were called active. About 12% were inconclusive and are not listed. Calls follow the shape of the dose curve; as a rule, active = well fitted cell-killing curve with a large enough effect; inconclusive = small, poorly fitted or top-dose-only effect, or effect the other way; inactive = flat fitted curve, though single readings scatter. The list shows a part of the results.
% is scaled to controls: 0 for no effect and ±100 for the full control effect.

The experiment is described as follows: Cell viability qHTS assay in S16 Pmp22-F2sN cells. Also: nearly all actives have a fitted effect of over 65% in size. The settings on record: S16 Pmp22-F2sN Schwann cells (luciferase reporters placed in the Pmp22 gene) viability, CellTiter-Glo, 24 h; series mostly up to 57.5 µM; activity change, negative = cytotoxicity: at the top concentration. The gist of the method:
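S16 Schwann cells carrying the Pmp22-F2sN reporter, seeded in 1536-well format, were exposed to library compounds for 24 h at 37C. Viability was read as CellTiter-Glo luminescence after 15 min at room temperature.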
A general note: In qHTS, concentration-response curves come from the screen itself.
As for `O=C(NCc1ccccc1)c1ccc2c(c1)CCN2S(=O)(=O)c1ccc(Cl)cc1`, the “activity change, negative = cytotoxicity” value was inactive: 0.159%. Turning to `COc1cc(OC)cc(-c2nc3nc(C)c(CCC(=O)Nc4ccc(C)cc4C)c(C)n3n2)c1`, the “activity change, negative = cytotoxicity” value was inactive: 0.715%. Consider `O=S(=O)(c1ccccc1)c1nnn2c1nc(NCc1ccc(Cl)cc1)c1sccc12`, for which the “activity change, negative = cytotoxicity” value was inactive: 11.1%. With `CCN(CC)S(=O)(=O)c1ccc(C(=O)Nc2nc3ccc(Cl)cc3s2)cc1` the figure was inactive: 27.5%.

Regarding `O=C1CCc2cc(S(=O)(=O)NCc3ccccc3Cl)cc3c2N1CC3`, the “activity change, negative = cytotoxicity” value was inactive: 28%. For `O=C(c1cnn(-c2ccc(F)cc2)c1-n1cccc1)N1CCN(c2ccc(Cl)cc2)CC1`, the “activity change, negative = cytotoxicity” value was inactive: -1.65%. As for `COc1ccccc1NC(=O)Cn1c(=O)c(CNc2ccccc2)cc2cc(OC)c(OC)cc21`, the “activity change, negative = cytotoxicity” value was inactive: -6.21%. The value for `Cc1cccc(CNC(=O)c2ccc3c(c2)c(C)c(C)n3Cc2ccccc2)c1` was inactive: -9.3%; that for `COc1ccccc1C1C=C(c2ccc(C(C)C)cc2)Nc2nnnn21` (configuration not stated) was inactive: 7.61%; that for `Cc1cc(C)cc(OCc2cc(=O)n3c(-c4ccccc4)csc3n2)c1` was inactive: 9.43%. The value for `Cc1ccc(S(=O)(=O)c2nnn3c2nc(NCc2cccs2)c2sccc23)cc1` was inactive: 13.3%; that for `CCn1nc(C)c2c(-c3ccccc3)cc(=O)n(C(C)C(=O)NCc3ccccc3OC)c21` (configuration not stated) was inactive: -0.427%. Regarding `COc1cccc(NC(=O)Cn2cc(S(=O)(=O)Cc3ccccc3F)c3ccccc32)c1`, the “activity change, negative = cytotoxicity” value was inactive: -17.2%.

Regarding `O=C(CCn1ccc2cc(S(=O)(=O)N3CCCC3)ccc21)NCc1ccccc1F`, the “activity change, negative = cytotoxicity” value was inactive: -6.74%. On to `COC(=O)c1cc(NC(=O)c2cc3sccc3n2Cc2ccc(Cl)cc2)cc(C(=O)OC)c1`, for which the “activity change, negative = cytotoxicity” value was inactive: 9.38%. `COc1cccc(NC(=O)c2oc3ccccc3c2NC(=O)C2CCCCC2)c1`: the “activity change, negative = cytotoxicity” value is inactive: -7.88%. For the compound `CCc1ccccc1NC(=O)CCCN1C(=O)CCn2nc(-c3cn(C)c4ccccc34)cc21`, the “activity change, negative = cytotoxicity” value is inactive: 14.4%. The value for `COc1cc(Nc2nc(SCc3ccccc3Cl)nc3ccccc23)cc(OC)c1` was inactive: -29%; that for `COc1ccc(C(=O)/C=C/c2cn(CC(O)CN3CCc4ccccc43)c3ccccc23)cc1` (configuration not stated) was inactive: 25.2%; that for `O=C1NC(NS(=O)(=O)c2ccccc2)(C(F)(F)F)C(=O)N1c1ccc(F)cc1` (configuration not stated) was inactive: -1.65%. The value for `Cc1cc(N2CCC(C(=O)N(CC(C)C)CC(C)C)CC2)n2nc(C)c(-c3ccc(Cl)cc3)c2n1` was inactive: 5.6%; that for `O=C(NCc1ccc(Cl)cc1)c1ccc(Cn2c(=O)c3cccn3c3cccnc32)cc1` was inactive: 1.9%; that for `COCCCNC(=O)c1ccc2c(c1)N(Cc1ccccc1F)C(=O)c1ccccc1S2=O` (configuration not stated) was inactive: 11.7%. The value for `COc1ccc(-c2nnc(SCC(=O)Nc3ccc(C)c(C)c3)s2)cc1` was inactive: 0.748%; that for `CCOc1ccc(N2C(=O)c3[nH]nc(-c4ccc(OC)cc4)c3C2c2cccs2)cc1` (configuration not stated) was inactive: -7.87%. `COc1ccc(S(=O)(=O)N2CCN(Cc3nc4ccc(C)cc4o3)CC2)cc1`: the “activity change, negative = cytotoxicity” value was inactive: -5.86%. For `COc1ccc(-c2c(C)c3ccc(O)c(CN4CCCC(C)C4)c3oc2=O)cc1OC` (configuration not stated), the “activity change, negative = cytotoxicity” value is inactive: -14.7%. Turning to `O=C1CCc2cc(S(=O)(=O)NC(C(=O)Nc3cccc(F)c3)c3ccccc3)ccc2N1` (configuration not stated), the “activity change, negative = cytotoxicity” value is inactive: 1.52%. The value for `CCc1ccc(S(=O)(=O)c2cn(C)c3cc(N4CCCC4)c(F)cc3c2=O)cc1` was inactive: 2.22%. For the compound `COc1ccc(C(=O)Nc2ccc3c(c2)CCCN3S(=O)(=O)c2ccc(C)cc2)c(OC)c1`, the “activity change, negative = cytotoxicity” value is inactive: -7.04%. Take `Cc1cc(C)cc(C(=O)NCC(c2ccc(N(C)C)cc2)N2CCCC2)c1` (configuration not stated): the “activity change, negative = cytotoxicity” value was inactive: 6.09%. With `CN(Cc1ccccc1)c1ccc(-c2nc(-c3ccncc3)no2)cc1[N+](=O)[O-]`, the “activity change, negative = cytotoxicity” value was inactive: -24.6%. With `CCOC(=O)CC(NC(=O)CCc1c(C)nc2ncnn2c1C)c1ccc(C)cc1` (configuration not stated), the “activity change, negative = cytotoxicity” value was inactive: -10%. The value for `CCOc1ccc(C(=O)NCCc2csc(-c3cccc(F)c3)n2)cc1OCC` was inactive: 9.24%; that for `Cc1cn2c(=O)c(S(=O)(=O)Nc3ccc(F)cc3F)c(C)nc2s1` was inactive: 15%; that for `O=C(NCCC1=CCCCC1)C1CCN(C(=O)N2CCOc3ccc(Cl)cc32)CC1` was inactive: -13%. With `O=C(NCc1ccco1)c1ccc2c(c1)N(Cc1ccc(Cl)cc1)C(=O)c1ccccc1S2(=O)=O` the figure was inactive: 16.6%; with `COC(=O)c1nnn(-c2ccc(Br)cc2)c1C(=O)OC`, inactive: 0.993%; with `CCOC(=O)c1noc2ncnc(Nc3cccc(OC)c3)c12`, inactive: 1.65%. With `CCOC(=O)COc1ccc(F)cc1C(=O)c1ccn2nc(-c3ccc(Cl)cc3)cc2n1` the figure was inactive: 23.1%.

Regarding `O=C(COc1ccccc1Cl)Nc1ccc2nc(SCC(=O)N3CCCC3)sc2c1`, the “activity change, negative = cytotoxicity” value was inactive: -2.32%. For `CCCn1c(=O)c2sccc2n2c(CCCC(=O)NCc3ccccc3)nnc12`, the “activity change, negative = cytotoxicity” value was inactive: 4.97%. As to `CC(=O)Nc1c(C)nn(-c2ccccc2)c1N1CCC(C(=O)NCc2ccccc2Cl)CC1`, the “activity change, negative = cytotoxicity” value is inactive: -0.342%. As for `Cc1ccc(S(=O)Cc2nc(-c3ccc(C(=O)NCc4cccc(C)c4)cc3)oc2C)cc1` (configuration not stated), the “activity change, negative = cytotoxicity” value was inactive: -2.73%. In the case of `O=C(CCn1nc(-c2ccc(Cl)cc2)ccc1=O)NCCc1ccccc1`, the “activity change, negative = cytotoxicity” value was inactive: -20.6%.

As for `COc1cccc(NC(=O)CSc2nc(-c3ccccc3Cl)nc3c2Cc2c(CO)cnc(C)c2O3)c1`, the “activity change, negative = cytotoxicity” value is inactive: -12.4%. In the case of `COc1ccc(-c2cc(-c3ccccc3)nc(SCC(=O)Nc3ccccc3F)c2C#N)cc1`, the “activity change, negative = cytotoxicity” value was inactive: 11.6%.
